The other results are listed elsewhere or left out.
Key:
Test in all cases: glycan array binding signal (z-score within array); higher = stronger binding
Settings in all cases: glycan notation: IUPAC condensed, linker removed
[1] = target: GlcNAc(b1-2)Man(a1-3)[GlcNAc(b1-2)Man(a1-6)]Man(b1-4)GlcNAc(b1-4)[Fuc(a1-6)]GlcNAc
Method in brief: (§1)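 Glycan array data were curated from 3228 arrays in the Consortium for Functional Glycomics database and kept only where the protein sequence was available. Glycan names were converted to IUPAC-condensed notation, and columns mapping to the same glycan were averaged. The binding signal is a within-array Z-score, averaged across arrays of the same protein sequence at different concentrations or buffers and across linkers. Negative Z-scores can be read as non-binding.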

[2] = target: GlcNAc(b1-2)Man(a1-3)[GlcNAc(b1-2)Man(a1-6)][GlcNAc(b1-4)]Man(b1-4)GlcNAc(b1-4)GlcNAc
Method in brief: as §1

[3] = target: GlcNAc(b1-2)Man(a1-3)[GlcNAc(b1-4)][GlcNAc(b1-2)Man(a1-6)]Man(b1-4)GlcNAc(b1-4)GlcNAc
Method in brief: as §1

[4] = target: GlcNAc(b1-2)Man(a1-3)[GlcNAc(b1-4)][GlcNAc(b1-2)Man(a1-6)]Man(b1-4)GlcNAc(b1-4)[Fuc(a1-6)]GlcNAc
Method in brief: as §1

[5] = target: GlcNAc(b1-2)Man(a1-3)[Man(a1-3)[Man(a1-6)]Man(a1-6)][GlcNAc(b1-4)]Man(b1-4)GlcNAc(b1-4)GlcNAc
Method in brief: as §1

[6] = target: GlcNAc(b1-2)[GlcNAc(b1-4)]Man(a1-3)[GlcNAc(b1-2)Man(a1-6)]Man(b1-4)GlcNAc(b1-4)GlcNAc
Method in brief: as §1

[7] = target: GlcNAc(b1-2)[GlcNAc(b1-4)]Man(a1-3)[GlcNAc(b1-2)Man(a1-6)][GlcNAc(b1-4)]Man(b1-4)GlcNAc(b1-4)GlcNAc
Method in brief: as §1

[8] = target: GlcNAc(b1-2)[GlcNAc(b1-4)]Man(a1-3)[GlcNAc(b1-2)[GlcNAc(b1-4)][GlcNAc(b1-6)]Man(a1-6)][GlcNAc(b1-4)]Man(b1-4)GlcNAc(b1-4)GlcNAc
Method in brief: as §1

[9] = target: GlcNAc(b1-2)[GlcNAc(b1-4)]Man(a1-3)[GlcNAc(b1-2)[GlcNAc(b1-6)]Man(a1-6)]Man(b1-4)GlcNAc(b1-4)GlcNAc
Method in brief: as §1

[10] = target: GlcNAc(b1-2)[GlcNAc(b1-4)]Man(a1-3)[GlcNAc(b1-4)][GlcNAc(b1-2)Man(a1-6)]Man(b1-4)GlcNAc(b1-4)GlcNAc
Method in brief: as §1

[11] = target: GlcNAc(b1-2)[GlcNAc(b1-4)]Man(a1-3)[GlcNAc(b1-4)][GlcNAc(b1-2)[GlcNAc(b1-6)]Man(a1-6)]Man(b1-4)GlcNAc(b1-4)GlcNAc
Method in brief: as §1

[12] = target: GlcNAc(b1-2)[GlcNAc(b1-4)]Man(a1-3)[GlcNAc(b1-4)][GlcNAc(b1-2)[GlcNAc(b1-6)]Man(a1-6)]Man(b1-4)GlcNAc(b1-4)[Fuc(a1-6)]GlcNAc
Method in brief: as §1

[13] = target: GlcNAc(b1-2)[GlcNAc(b1-6)]Man(a1-6)[GlcNAc(b1-2)Man(a1-3)]Man(b1-4)GlcNAc(b1-4)GlcNAc
Method in brief: as §1

[14] = target: GlcNAc(b1-2)[GlcNAc(b1-6)]Man(a1-6)[GlcNAc(b1-2)Man(a1-3)]Man(b1-4)GlcNAc(b1-4)[Fuc(a1-6)]GlcNAc
Method in brief: as §1

[15] = target: GlcNAc(b1-2)[GlcNAc(b1-6)]Man(a1-6)[GlcNAc(b1-4)][GlcNAc(b1-2)Man(a1-3)]Man(b1-4)GlcNAc(b1-4)GlcNAc
Method in brief: as §1

[16] = target: GlcNAc(b1-3)Fuc
Method in brief: as §1

[17] = target: GlcNAc(b1-3)Gal
Method in brief: as §1

[18] = target: GlcNAc(b1-3)Gal(b1-3)GalNAc
Method in brief: as §1

[19] = target: GlcNAc(b1-3)Gal(b1-4)Glc
Method in brief: as §1

[20] = target: GlcNAc(b1-3)Gal(b1-4)GlcNAc
Method in brief: as §1

[21] = target: GlcNAc(b1-3)Gal(b1-4)GlcNAc(b1-2)Man(a1-3)[GlcNAc(b1-3)Gal(b1-4)GlcNAc(b1-2)Man(a1-6)]Man(b1-4)GlcNAc(b1-4)GlcNAc
Method in brief: as §1

[22] = target: GlcNAc(b1-3)Gal(b1-4)GlcNAc(b1-2)Man(a1-3)[GlcNAc(b1-3)Gal(b1-4)GlcNAc(b1-2)Man(a1-6)]Man(b1-4)GlcNAc(b1-4)[Fuc(a1-6)]GlcNAc
Method in brief: as §1

B1: Banana lectin (Musa acuminata) (protein)
chain: MNGAIKVGAWGGNGGSAFDMGPAYRIISVKIFSGDVVDGVDVTFTYYGKTETRHYGGSGGTPHEIVLQEGEYLVGMAGEVANYHGAVVLGKLGFSTNKKAYGPFGNTGGTPFSLPIAAGKISGFFGRGGKFLDAIGVYLEPLEHHHHHH
Q: Which “glycan array binding signal (z-score)” value [1] does the source give for B1 here?
A: -0.327

Q: And the “glycan array binding signal (z-score)” value [2]?
A: -0.653

Q: And the “glycan array binding signal (z-score)” value [3]?
A: -0.209

Q: And the “glycan array binding signal (z-score)” value [4]?
A: -0.216

Q: What about the “glycan array binding signal (z-score)” value [5] of the same binder?
A: -0.039

Q: What about the “glycan array binding signal (z-score)” value [6] of the same binder?
A: -0.204

Q: And the “glycan array binding signal (z-score)” value [7]?
A: -0.975

Q: What about the “glycan array binding signal (z-score)” value [8] of the same binder?
A: -0.99

Q: What about the “glycan array binding signal (z-score)” value [9] of the same binder?
A: -0.985

Q: And the “glycan array binding signal (z-score)” value [10]?
A: -0.206

Q: And the “glycan array binding signal (z-score)” value [11]?
A: -0.157

Q: And the “glycan array binding signal (z-score)” value [12]?
A: -0.22

Q: And the “glycan array binding signal (z-score)” value [13]?
A: -0.095

Q: And the “glycan array binding signal (z-score)” value [14]?
A: -0.141

Q: And the “glycan array binding signal (z-score)” value [15]?
A: -0.168

Q: What about the “glycan array binding signal (z-score)” value [16] of the same binder?
A: -0.208

Q: What about the “glycan array binding signal (z-score)” value [17] of the same binder?
A: -0.178

Q: What about the “glycan array binding signal (z-score)” value [18] of the same binder?
A: -0.187

Q: What about the “glycan array binding signal (z-score)” value [19] of the same binder?
A: -0.206

Q: What about the “glycan array binding signal (z-score)” value [20] of the same binder?
A: -0.212

Q: And the “glycan array binding signal (z-score)” value [21]?
A: -0.123

Q: What about the “glycan array binding signal (z-score)” value [22] of the same binder?
A: -0.127
